Reference: PubChem BioAssay AID504333 (National Center for Advancing Translational Sciences (NCATS), 2011)
The campaign covered roughly 360,000 compounds. About 16,000 (4.4%) were called active. Inconclusive means that the source gave no clear call. Such entries were picked first, then a sample of the others. Calls follow the shape of the dose curve; as a rule, active = well fitted inhibition curve with a large enough effect; inconclusive = small, poorly fitted or top-dose-only effect; inactive = no such curve, though single readings can be large or run the other way. Where the call is inconclusive, the potency comes from a doubtful curve fit.

Target: Bromodomain adjacent to zinc finger domain protein 2B (Homo sapiens) (UniProt Q9UIF8)
Sequence of UniProt Q9UIF8 (Q9UIF8 whole entry, looked up, the tested form may be a part): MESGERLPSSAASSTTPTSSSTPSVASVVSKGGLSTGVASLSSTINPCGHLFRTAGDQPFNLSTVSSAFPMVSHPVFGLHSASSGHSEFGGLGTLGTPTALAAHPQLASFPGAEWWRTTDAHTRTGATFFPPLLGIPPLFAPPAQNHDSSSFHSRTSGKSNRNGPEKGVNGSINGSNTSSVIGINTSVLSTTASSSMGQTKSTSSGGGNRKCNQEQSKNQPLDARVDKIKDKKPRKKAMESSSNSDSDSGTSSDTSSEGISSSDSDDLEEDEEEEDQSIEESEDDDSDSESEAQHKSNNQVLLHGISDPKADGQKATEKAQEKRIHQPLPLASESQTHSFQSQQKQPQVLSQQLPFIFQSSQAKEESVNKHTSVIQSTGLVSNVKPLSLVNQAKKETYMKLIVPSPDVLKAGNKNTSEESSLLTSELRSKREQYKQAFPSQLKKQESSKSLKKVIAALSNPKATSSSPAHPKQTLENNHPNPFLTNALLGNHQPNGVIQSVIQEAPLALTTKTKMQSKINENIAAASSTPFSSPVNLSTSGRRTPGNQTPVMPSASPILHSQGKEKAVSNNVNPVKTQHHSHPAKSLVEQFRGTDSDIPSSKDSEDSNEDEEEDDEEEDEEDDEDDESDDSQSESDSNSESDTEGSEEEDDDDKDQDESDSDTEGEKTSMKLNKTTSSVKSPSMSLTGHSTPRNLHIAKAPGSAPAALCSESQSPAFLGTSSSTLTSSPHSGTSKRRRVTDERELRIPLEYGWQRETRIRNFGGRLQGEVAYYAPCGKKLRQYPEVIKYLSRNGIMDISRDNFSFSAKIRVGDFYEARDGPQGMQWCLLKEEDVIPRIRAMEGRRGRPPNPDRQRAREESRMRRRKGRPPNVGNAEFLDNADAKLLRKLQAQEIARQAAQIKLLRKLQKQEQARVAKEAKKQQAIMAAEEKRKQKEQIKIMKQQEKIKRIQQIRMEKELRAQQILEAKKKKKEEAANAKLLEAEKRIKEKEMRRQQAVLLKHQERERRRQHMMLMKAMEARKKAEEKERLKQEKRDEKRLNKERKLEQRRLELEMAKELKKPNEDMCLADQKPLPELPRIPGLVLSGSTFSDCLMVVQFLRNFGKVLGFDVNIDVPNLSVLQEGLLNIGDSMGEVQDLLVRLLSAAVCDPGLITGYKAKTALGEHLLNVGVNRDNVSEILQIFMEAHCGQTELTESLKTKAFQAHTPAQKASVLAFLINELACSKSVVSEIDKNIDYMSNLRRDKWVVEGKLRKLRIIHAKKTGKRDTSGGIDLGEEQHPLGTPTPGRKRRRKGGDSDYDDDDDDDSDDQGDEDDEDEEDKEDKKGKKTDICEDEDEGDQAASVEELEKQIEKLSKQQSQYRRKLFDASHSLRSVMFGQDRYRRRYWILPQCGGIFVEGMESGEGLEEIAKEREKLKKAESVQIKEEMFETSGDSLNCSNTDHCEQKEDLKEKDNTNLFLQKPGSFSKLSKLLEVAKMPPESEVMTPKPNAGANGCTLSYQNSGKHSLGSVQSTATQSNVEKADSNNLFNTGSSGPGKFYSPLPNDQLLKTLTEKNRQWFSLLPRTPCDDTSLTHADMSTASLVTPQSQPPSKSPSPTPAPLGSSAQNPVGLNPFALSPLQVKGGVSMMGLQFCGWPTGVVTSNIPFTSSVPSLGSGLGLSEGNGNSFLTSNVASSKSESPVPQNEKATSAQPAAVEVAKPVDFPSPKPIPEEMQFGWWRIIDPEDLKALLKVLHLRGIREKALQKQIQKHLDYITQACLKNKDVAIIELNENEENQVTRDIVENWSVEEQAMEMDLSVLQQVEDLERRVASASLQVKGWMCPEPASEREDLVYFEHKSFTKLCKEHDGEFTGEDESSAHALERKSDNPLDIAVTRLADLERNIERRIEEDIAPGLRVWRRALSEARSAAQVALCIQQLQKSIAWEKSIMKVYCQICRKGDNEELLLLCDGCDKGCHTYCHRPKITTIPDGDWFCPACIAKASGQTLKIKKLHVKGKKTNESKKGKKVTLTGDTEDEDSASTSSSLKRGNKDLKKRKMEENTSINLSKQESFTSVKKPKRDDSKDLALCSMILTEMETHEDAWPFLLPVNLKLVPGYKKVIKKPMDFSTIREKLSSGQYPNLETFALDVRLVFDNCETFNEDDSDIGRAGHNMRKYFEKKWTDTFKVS
Assay: qHTS Assay for Inhibitors of BAZ2B; also: nearly all actives have a fitted effect of over 60% in size
Settings: AlphaScreen BAZ2B-H3K14Ac peptide displacement; series mostly up to 114 µM
In short: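 Multi-concentration screen (max 110 uM) measuring displacement of acetylated histone H3 peptide from BAZ2B by AlphaScreen, using 50 nM protein, 50 nM peptide and 10 ug/mL streptavidin donor plus Ni-chelate acceptor beads.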
Potency is read from the fitted curve at half-maximal effect; tags tell the direction and shape of the fitted curve.

Row | SMILES | Potency
1 | Cc1cc(Br)ccc1SCC(=O)OCC(=O)N1CCN(C(=O)c2ccco2)CC1 | inconclusive: 79.4 µM [inhibitor, single point]
2 | O=[N+]([O-])c1cc(-n2cnnn2)ccc1N1CCC(Cc2ccccc2)CC1 | active: 28.2 µM
3 | O=C(O)CNC(=O)CC1S/C(=N/N=C2/NC(=O)CS2)NC1=O (configuration not stated) | active: 20 µM
4 | Cc1cc[n+](CCC(=O)O)c2ccccc12 | inconclusive: 89.1 µM [inhibitor, single point]
5 | CCn1c(SCC(=O)N/N=C/C=C/c2ccco2)nnc1-c1ccccc1 | inconclusive: 70.8 µM [inhibitor, single point]
6 | CC1CCN(S(=O)(=O)c2ccc(Oc3ccc([N+](=O)[O-])cc3)cc2)CC1 | inconclusive: 3.98 µM [inhibitor, full curve, poor fit]
7 | CCOc1ccc2nc(N=NC3=C(O)CC(C)(C)CC3=O)sc2c1 | active: 44.7 µM
8 | COc1ccc(N2CCC(CNC(=S)Nc3ccc(C)cc3C)C2)cc1 (configuration not stated) | active: 15.8 µM
9 | CCOCc1nnc(NC(=O)c2cccc(OC)c2)s1 | inconclusive: 89.1 µM [inhibitor, single point]
10 | COc1cccc(/C=C2\SC(=S)N(CCCC(=O)Nc3ccc(C(=O)O)cc3)C2=O)c1 | inconclusive: 31.6 µM [inhibitor, partial curve]
11 | COc1ccc(NC(=O)CSc2nnc(NC(=O)C3CC3)s2)cc1OC | inactive
12 | O=C(NC(=S)Nc1nc(-c2cccc([N+](=O)[O-])c2)cs1)c1cc(Cl)ccc1Cl | inactive
13 | COc1ccc(C2c3c(n(C)c4ccccc34)C(=O)N2CC(=O)Nc2ccccc2F)cc1 (configuration not stated) | inconclusive: 79.4 µM [inhibitor, single point]
14 | COc1cc(C)ccc1OCCn1c(-c2ccc(Cl)cc2)nc2ccccc2c1=O | inactive
15 | COc1ccc(-n2c3c(cc(-c4nc(-c5ccc(Cl)cc5)cs4)c2=O)C(=O)CC(C)(C)C3)cc1 | inconclusive: 89.1 µM [inhibitor, single point]
16 | O=C(NNc1ccccc1)Nc1ccccc1F | inconclusive: 50.1 µM [inhibitor, partial curve]
17 | C=CCN1C(=O)/C(=c2\sc3nc(=O)c(Cc4ccccc4Cl)nn3c2=O)c2ccccc21 | inconclusive: 44.7 µM [inhibitor, partial curve]
18 | S=c1[nH]nc(-c2ccc(Cl)cc2Cl)n1-c1ccc(Cl)cc1 | inconclusive: 70.8 µM [inhibitor, single point]
19 | COc1ccc(CNC(=O)C/C(C)=N/NC(=O)c2cnccn2)cc1 | inconclusive: 79.4 µM [inhibitor, single point]
20 | Cc1ccc2scc(N3CCN(c4ccc(F)cc4)CC3)c(=O)c2c1 | inconclusive: 28.2 µM [inhibitor, partial curve]
21 | COc1ccc(S(=O)(=O)N2CCN(C(=O)C3COc4ccccc4O3)CC2)cc1 (configuration not stated) | active: 17.8 µM
22 | Cc1cc(C(F)(F)F)n2ncc(-c3cccc(Br)c3)c2n1 | inconclusive: 89.1 µM [inhibitor, single point]
23 | COc1ccc(NC(=O)c2sc3nc4n(c(=O)c3c2C)CCC4)cc1Cl | inactive
24 | CCn1c(SCC(=O)NC2CC2)nnc1-c1ccncc1 | inactive

Row | SMILES | Potency
25 | O=C(O)c1ccc(Nc2nc(-c3cc4ccccc4oc3=O)cs2)cc1O | active: 28.2 µM
26 | Cc1cccc(N=C2NC(=O)/C(=C/c3cn(C)c4ccccc34)S2)c1 | inconclusive: 44.7 µM [inhibitor, partial curve]
27 | O=C(NCC(c1ccco1)N1CCc2ccccc21)c1cccc([N+](=O)[O-])c1 (configuration not stated) | active: 50.1 µM
28 | CC1(c2ccccc2)NC(=O)N(CC(=O)Nc2cc3c(cc2Br)OCCO3)C1=O (configuration not stated) | inactive
29 | O=C(Nc1nc2nc(-c3ccccc3)cc(=O)n2[nH]1)c1ccc(Cl)cc1 | active: 79.4 µM
30 | CN(CCC#N)CC(=O)Nc1ccc(S(N)(=O)=O)cc1 | inactive
31 | O=C(N/N=C/c1cc(Br)ccc1OC(=O)c1ccc(Br)cc1)c1ccncc1 | active: 50.1 µM
32 | COc1cccc(C(c2c(C)[nH]n(-c3ccccc3)c2=O)c2c(C)[nH]n(-c3ccccc3)c2=O)c1OC | inconclusive: 79.4 µM [inhibitor, single point]
33 | O=c1ccc(-c2ccc(S(=O)(=O)Nc3cccc(Br)c3)o2)n[nH]1 | inactive
34 | Cc1ccc(S(=O)(=O)N2CCN(CCC#N)CC2)cc1 | active: 20 µM
35 | Cc1ccc(NC(=O)CN2C(=O)CCn3nc(-c4cccn4C)cc32)cc1 | inconclusive: 39.8 µM [inhibitor, partial curve]
36 | CCOc1ccc(OCC)c(NC(=O)CCC(=O)N2CCOc3ccccc32)c1 | inactive
37 | COC(C(=O)N1CCC(CCC(=O)Nc2ccccc2)CC1)c1ccccc1 (configuration not stated) | inactive
38 | C(=N\Nc1nc(-c2ccccc2)cs1)/c1cccnc1 | inconclusive: 89.1 µM [inhibitor, single point]
39 | Cc1ccccc1C(=O)Nc1ccc2c(C#N)c3nc4ccccc4nc3n2c1 | active: 50.1 µM
40 | Cc1csc(NC(=O)c2ccc(OCC3CCCO3)cc2)n1 (configuration not stated) | inactive
41 | CC1CCC(C(C)C)C(OCC[N+](C)(C)C)C1 (configuration not stated) | inconclusive: 89.1 µM [inhibitor, single point]
42 | C[C@@H](C(=O)NCCc1ccccc1F)N1C(=O)N2CCc3c([nH]c4ccccc34)[C@@]2(C)C1=O | inconclusive: 28.2 µM [inhibitor, single point]
43 | CC(=O)Nc1ccc([C@H]2[C@H](C)CC[C@H]3C(=O)N4[C@@H](CC[C@@H](C)[C@@H]4c4ccc(NC(C)=O)cc4)C(=O)N32)cc1 | active: 56.2 µM
44 | C=CCSc1nc2sc(C)c(C)c2c(=O)[nH]1 | inactive
45 | COc1cc(C(=O)Oc2ccc(Br)cc2C(=S)N2CCOCC2)cc(OC)c1OC | inactive
46 | O=C(CN1C(=O)C2CC=CCC2C1=O)OCc1cc(=O)n2cc(Br)ccc2n1 (configuration not stated) | inconclusive: 56.2 µM [inhibitor, partial curve]
47 | O=C(/C=C/Nc1ccc(Oc2ccccc2Cl)cc1)c1ccco1 | inconclusive: 79.4 µM [inhibitor, partial curve]
